Measurements as given in article PMC11149917, “Translational and Therapeutic Evaluation of RAS-GTP Inhibition by RMC-6236 in RAS-Driven Cancers” (Cancer Discovery, 2024).
Where “and” joins values, the source holds several entries; their conditions need not be identical. Equal values may be shown once. The source gives many values for each of these; only a part stands here.

Assay: Mouse blood and tissue PK (LC/MS-MS)
Type: in vivo
Procedure: For single-dose PKPD study, mice were randomized and assigned into groups (n = 3/dose/time point). […] Blood and tissues, including the tumor, brain, colon, ear skin, and muscle, were harvested at indicated time points. […] The whole blood, tumor, brain, colon, and ear skin concentrations of RMC-6236 were determined using liquid chromatography–tandem mass spectrometry (LC/MS-MS) methods. […] After thorough mixing and centrifugation, the supernatant was diluted with water or directly analyzed on a Sciex 5500 or Sciex 6500+ triple quadrupole mass spectrometer equipped with an ACQUITY or Shimadzu UPLC system. […] Bioanalysis on blood and tissue samples from xenograft models was run at Pharmaron and Wuxi AppTec. Concentrations reported as below the quantification limit were treated as zero for PK analysis. PK parameters were calculated by noncompartmental analysis of the concentration–time profiles using Phoenix WinNonLin (version 8.3 Certara). Apparent terminal elimination half-life (t1/2) values were calculated as ln(2)/k, where k represents the terminal elimination rate constant. Area under the concentration–time curve (AUC) values were estimated using a linear trapezoidal method. AUClast values were calculated from the dosing time to the last quantifiable concentration. Maximum concentration (Cmax) was recorded as observed.

CCn1c(-c2cc(N3CCN(C)CC3)cnc2[C@H](C)OC)c2c3cc(ccc31)-c1csc(n1)C[C@H](NC(=O)[C@H]1C[C@@H]1C)C(=O)N1CCC[C@H](N1)C(=O)OCC(C)(C)C2 [RMC-6236]
RMC-6236 (nM) Tumor (HPAC #3, 50 mg/kg, 4h, individual animals): 3267 nM and 2947 nM | RMC-6236 (nM) Tumor (HPAC #3, 50 mg/kg, 8h, individual animals): 3218 nM and 5622 nM | RMC-6236 (nM) Tumor (HPAC #3, 50 mg/kg, 24h, individual animals): 4180 nM | RMC-6236 (nM) Tumor (HPAC #4, 25 mg/kg, 8h, individual animals): 2639 nM and 3650 nM | RMC-6236 (nM) Tumor (HPAC #4, 25 mg/kg, 24h, individual animals): 1960 nM and 1578 nM | RMC-6236 (nM) Tumor (HPAC #4, 25 mg/kg, 48h, individual animals): 382 nM and 837 nM and 646 nM | RMC-6236 (nM) Tumor (HPAC #11, 1 mg/kg, 4h, individual animals): 52.9 nM and 121 nM and 45.7 nM | RMC-6236 (nM) Tumor (HPAC #11, 1 mg/kg, 8h, individual animals): 118 nM | RMC-6236 (nM) Tumor (KP-4, study KP-4 #3, 25 mg/kg, 8h): 2910 nM and 2614 nM | RMC-6236 (nM) Tumor (KP-4, study KP-4 #3, 25 mg/kg, 24h): 726 nM and 1356 nM | RMC-6236 (nM) Tumor (KP-4, study KP-4 #3, 50 mg/kg, 8h): 4377 nM and 8002 nM | RMC-6236 (nM) Tumor (KP-4, study KP-4 #3, 50 mg/kg, 24h): 2232 nM and 2934 nM | RMC-6236 (nM) Tumor (KP-4, study KP-4 #3, 50 mg/kg, 48h): 397 nM and 551 nM | RMC-6236 (nM) Tumor (KP-4, study KP-4 #4, 25 mg/kg, 8h): 3354 nM and 3045 nM | RMC-6236 (nM) Tumor (KP-4, study KP-4 #4, 25 mg/kg, 24h): 1005 nM and 1652 nM | RMC-6236 (nM) Tumor (KP-4, study KP-4 #4, 25 mg/kg, 48h): 422 nM | RMC-6236 (nM) Tumor (KP-4, study KP-4 #4, 40 mg/kg, 24h): 2676 nM and 1738 nM | RMC-6236 (nM) Tumor (KP-4, study KP-4 #4, 40 mg/kg, 48h): 755 nM and 1080 nM | RMC-6236 (nM) Tumor (KP-4, study KP-4 #4, 100 mg/kg, 8h): 8890 nM and 8692 nM | RMC-6236 (nM) Tumor (KP-4, study KP-4 #4, 100 mg/kg, 24h): 6448 nM and 4698 nM | RMC-6236 (nM) Tumor (KP-4, study KP-4 #5, 25 mg/kg, 4h): 3458 nM and 2197 nM | RMC-6236 (nM) Tumor (KP-4, study KP-4 #5, 25 mg/kg, 24h): 1668 nM and 852 nM | RMC-6236 (nM) Tumor (KP-4, study KP-4 #5, 25 mg/kg, 48h): 302 nM and 382 nM | RMC-6236 (nM) Tumor (KP-4, study KP-4 #6, 3 mg/kg, 4h): 340 nM and 301 nM | RMC-6236 (nM) Tumor (KP-4, study KP-4 #6, 3 mg/kg, 8h): 503 nM and 464 nM | RMC-6236 (nM) Tumor (KP-4, study KP-4 #6, 3 mg/kg, 12h): 168 nM and 254 nM | RMC-6236 (nM) Tumor (KP-4, study KP-4 #6, 3 mg/kg, 48h): 28.8 nM and 31.7 nM | RMC-6236 (nM) Tumor (KP-4, study KP-4 #6, 10 mg/kg, 48h): 142 nM and 269 nM | RMC-6236 (nM) Tumor (KP-4, study KP-4 #6, 25 mg/kg, 8h): 4774 nM and 4313 nM | RMC-6236 (nM) Tumor (KP-4, study KP-4 #6, 25 mg/kg, 24h): 1160 nM and 2156 nM | RMC-6236 (nM) Tumor (KP-4, study KP-4 #6, 25 mg/kg, 48h): 434 nM | RMC-6236 (nM) Tumor (NCI-H441 xenograft tumor, study NCI-H441#6, 3 mg/kg, 24h): 187 nM and 179 nM | RMC-6236 (nM) Tumor (NCI-H441 xenograft tumor, study NCI-H441#6, 3 mg/kg, 48h): 55.9 nM and 67.3 nM | RMC-6236 (nM) Tumor (NCI-H441 xenograft tumor, study NCI-H441#6, 10 mg/kg, 8h): 973 nM and 1160 nM | RMC-6236 (nM) Tumor (NCI-H441 xenograft tumor, study NCI-H441#6, 10 mg/kg, 24h): 266 nM and 275 nM | RMC-6236 (nM) Tumor (NCI-H441 xenograft tumor, study NCI-H441#6, 10 mg/kg, 48h): 165 nM and 264 nM | RMC-6236 (nM) Tumor (NCI-H441 xenograft tumor, study NCI-H441#6, 25 mg/kg, 8h): 3193 nM and 2133 nM | RMC-6236 (nM) Tumor (NCI-H441 xenograft tumor, study NCI-H441#6, 25 mg/kg, 24h): 978 nM and 703 nM | RMC-6236 (nM) Tumor (NCI-H441 xenograft tumor, study NCI-H441#6, 25 mg/kg, 48h): 926 nM and 502 nM | RMC-6236 (nM) Tumor (NCI-H441 xenograft tumor, study NCI-H441#6, 50 mg/kg, 8h): 3785 nM and 5844 nM | RMC-6236 (nM) Tumor (NCI-H441 xenograft tumor, study NCI-H441#6, 50 mg/kg, 24h): 1541 nM and 2786 nM | RMC-6236 (nM) Tumor (NCI-H441 xenograft tumor, study NCI-H441#6, 100 mg/kg, 24h): 5967 nM and 3267 nM | RMC-6236 (nM) Tumor (NCI-H441 xenograft tumor, study NCI-H441#6, 100 mg/kg, 48h): 1714 nM and 1775 nM | RMC-6236 (nM) Tumor (NCI-H441 xenograft tumor, study NCI-H441#8, 25 mg/kg, 8h): 1738 nM and 2491 nM | RMC-6236 (nM) Tumor (NCI-H441 xenograft tumor, study NCI-H441#8, 25 mg/kg, 24h): 1147 nM and 761 nM | RMC-6236 (nM) Tumor (NCI-H441 xenograft tumor, study NCI-H441#8, 40 mg/kg, 2h): 2589 nM and 3428 nM
